Assay results as given in PubChem BioAssay AID938 (National Center for Advancing Translational Sciences (NCATS), 2007).
Out of some 73,000 compounds screened, about 1,800 (2.5%) were called active. Inconclusive means that the source gave no clear call. Such entries were picked first, then a sample of the others. Calls come from the whole dose curve; as a rule, active = well fitted activation curve with a large enough effect; inconclusive = small, poorly fitted or top-dose-only effect; inactive = no such curve, though single readings can be large or run the other way. Potencies of inconclusive entries are left out as doubtful fits.

Assay: qHTS Assay for Agonists of the Thyroid Stimulating Hormone Receptor: Activators of Intracellular cAMP Concentrations in Parental HEK 293; note: nearly all actives have a fitted effect of over 55% in size
Details: parental HEK293 CNG cAMP sensor, membrane potential fluorescence; series mostly up to 57.1 µM
In short: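 Parental HEK 293 cells stably expressing a modified CNG channel (no TSHR) report cAMP rise as membrane depolarization. Membrane potential dye with 100 uM RO 20-1724 was loaded for 60 min at room temperature, then compound added for 30 min; fluorescence read at 590 nm.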
Potency is the fitted concentration of half-maximal effect; tags give direction and shape of the fitted curve.

Compound | Potency
COC(=O)c1ccccc1NC(=O)NCc1cccnc1 | inconclusive [activator, single point]
CCOC(=O)c1cc2occc2n1CC(=O)NC1CCC(C)CC1 (centres undefined) | inconclusive [activator, partial curve]
COc1ccc(-c2noc(CCC(=O)N3CCN(c4cc(C)ccc4C)CC3)n2)cc1 | inconclusive [activator, full curve]
CCOc1ccccc1-n1c(SCC(=O)NC2CCCC2)nnc1-c1ccoc1C | inconclusive [activator, full curve]
COc1cccc2cc(-c3nnc(SCC(=O)Nc4nc(C)cs4)n3C)oc12 | inconclusive [activator, partial curve]
CCOC(=O)c1cnc(SCC(=O)Nc2nc(C)c(C)s2)nc1N | inconclusive [activator, single point]
Cc1cc(C)nc(SCNC(=O)c2ccc(F)cc2)n1 | inactive
CCOC(=O)C1=C(C)NC(=O)NC1c1ccc(OC)c(CN2CCOCC2)c1 (centres undefined) | inactive
Cc1ccc(SC(C)c2nc(-c3ccccc3)no2)cc1 (centres undefined) | inconclusive [activator, partial curve]
COC(=O)[C@@]1(Cc2ccc(F)cc2)[C@H]2c3cc(C(=O)N(C)C)n(Cc4ccc(S(C)(=O)=O)cc4)c3C[C@H]2CN1C(=O)c1ccccc1 | inconclusive [activator, partial curve]
COc1ccccc1CCn1c(=O)c(-c2ccc(F)cc2)nc2cncnc21 | inconclusive [activator, partial curve]
CCOC(=O)C1=C(C)Nc2nc(C)nn2C1c1ccc(OCC)c(OC)c1 (centres undefined) | inactive
O=C(CCCC(=O)N1CCN(c2ccccc2F)CC1)N1CCN(c2ccccc2F)CC1 | inconclusive [activator, single point]
Cc1cccc(-n2c(=O)cc(N3CCN(c4ccc(F)cc4)CC3)[nH]c2=O)c1 | inconclusive [activator, single point]
O=C(Nc1ccccc1)c1cccc(-c2nnc(-c3ccccc3)o2)c1 | active: 31.6 µM
CCNC(=O)[C@H](C)/C=C/C(NC(=O)OCc1ccccc1)c1ccc(C(=O)OC)cc1 (some centres undefined) | inconclusive [activator, single point]
COc1ccc(N(CC(=O)Nc2ccc(C)cn2)S(=O)(=O)c2c(C)noc2C)cc1 | inconclusive [activator, partial curve]
CCOC(=O)C(Cc1cc(C(C)=O)ccc1OC(C)C)C(=O)OCC | inconclusive [activator, partial curve]
COc1ncc2nc(CCc3ccccc3)c(=O)n(CCC#N)c2n1 | inconclusive [activator, single point]
CCCn1c(CCC(=O)O)ccc1-c1cccs1 | inconclusive [activator, single point]
CC(=O)N1CCN(c2ccccc2NC(=O)COc2cc(C)ccc2C(C)C)CC1 | inconclusive [activator, full curve]
CSCCC(NC(=O)c1ccccc1)c1nc(-c2ccccc2)no1 (centres undefined) | active: 15.8 µM

Compound | Potency
O=C1NCCCC1C(=O)N1CCN(C(=O)c2ccco2)CC1 (centres undefined) | inconclusive [activator, single point]
CCc1cc2ccccc2nc1SCC(=O)Nc1cc(C)on1 | active: 25.1 µM
CCOC(=O)C1[C@H]2C(=O)N(C(C)c3ccc(OC)cc3)C[C@]23C=C[C@H]1O3 (some centres undefined) | inconclusive [activator, single point]
CCc1nnc(NC(=O)CSc2nnc(-c3ccccc3O)n2-c2ccc(C)cc2C)s1 | active: 20 µM
CN1CCN(/C=N/c2c(C#N)cnn2C)CC1 | inactive
COC(=O)C1(Cc2ccccc2)C=C2C(=C(C(C)C)C(=O)C2C)CN1 (centres undefined) | inconclusive [activator, full curve, poor fit]
Oc1cc(O)cc(/C=C\c2ccc(O)c(O)c2)c1 | inactive
COC(=O)c1ccc(C(NC(=O)OCc2ccccc2)/C(I)=C/[C@@H](C)C(=O)NCc2ccc(C)o2)cc1 (some centres undefined) | inactive
Cc1cccc(NC(=O)COc2ccc(Br)cc2C)n1 | inconclusive [activator, partial curve]
C=CCn1c(SCC(=O)c2cc(C)n(CC3CCCO3)c2C)nnc1-c1ccccc1 (centres undefined) | inconclusive [activator, full curve, poor fit]
CSc1nc(NC2CCCC2)c([N+](=O)[O-])c(NC2CCCC2)n1 | inactive
CCOc1cc(C(=O)OCc2ccc(C(=O)OC)o2)cc(Br)c1OC | active: 31.6 µM
COC(=O)[C@@H]1CCCN1C(=O)[C@H]1C[C@@H]1[C@H](NC(=O)OCc1ccccc1)c1ccccc1 | inconclusive [activator, single point]
CN(C)S(=O)(=O)c1ccc(Oc2ccccc2)cc1 | inactive
N#Cc1nc(-c2ccccc2F)oc1NC1CCCCC1 | inconclusive [activator, partial curve]
COc1ccc(NC(=O)Nc2c(C)n(C)n(-c3ccccc3)c2=O)cc1 | inconclusive [activator, single point]
Cc1nnc(C)c2c(C)n(-c3ccc(Br)cc3)c(C)c12 | active: 3.98 µM
N#CC1=C(N)C2=C(N3CCCCC3)CCCC2C1(C#N)C#N (centres undefined) | inactive
CCn1c(=O)c(=O)[nH]c2cc(C(=O)N3CCN(c4ccccc4F)CC3)ccc21 | inconclusive [activator, partial curve, poor fit]
CC(C)(C)n1nnnc1C(c1cccc(C#N)c1)N1CCCc2ccccc21 (centres undefined) | inconclusive [activator, partial curve]
COn1c(SCc2cccnc2)nc2ccccc2c1=O | inconclusive [activator, single point]
O=C(O)CCN1Cc2ccccc2C1=O | inconclusive [activator, single point]
